± gives the uncertainty stated by the source. Whole data set: some 9,900 compounds, median “viability index relative to DMSO control” near 1, cut for the lowest 2% near 0.85. The list shows a part of the results.
Tested on: Plasmodium falciparum NF54 stage V gametocytes
Test: viability index relative to DMSO control (fraction); higher = less gametocyte killing
Settings: 2.5 µM, library set: Broad Institute DOS, incubation time: 72 h
Outline: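 In 1,536-well plates, 10 µl of serum-free medium holding P. falciparum NF54 stage V gametocytes (0.75% gametocytemia, 1.25% hematocrit) received compound at 2.5 µM for 72 hr at 37°C in low oxygen. After one to two hours with 3 µl of 2.5 µM MitoTracker Red CMXRos containing 0.13% saponin, red particles of 20–70 µm2 were counted in a single field per well. Viability index is reported as the particle count over the plate mean of wells treated with solvent only.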

| SMILES | viability index |
| --- | --- |
| CNC(=O)C[C@H]1CC[C@@H]2[C@@H](COc3ccc(NS(=O)(=O)c4ccc(F)cc4)cc3C(=O)N2C)O1 | 0.986 ± 0.029 |
| CNC[C@@H]1Oc2ccc(NC(=O)NC3CCCCC3)cc2CC(=O)N([C@H](C)CO)C[C@@H]1C | 0.963 ± 0.082 |
| CCS(=O)(=O)Nc1ccc2c(c1)C(=O)N(C)C[C@@H](OC)[C@H](C)CN(C(=O)c1ccc3c(c1)OCO3)[C@@H](C)CO2 | 1.14 ± 0.027 |
| N#C[C@H]1[C@H](c2ccccc2-c2cccc(F)c2)[C@H](CO)N1C(=O)C1CC1 | 0.999 ± 0.12 |
| C[C@H]1CCCCO[C@H](CN(C)Cc2ccc(C(=O)O)cc2)[C@@H](C)CN([C@@H](C)CO)C(=O)c2cc(N(C)C)ccc2O1 | 1.06 ± 0.12 |
| CO[C@H]1CC[C@H]2CCOc3ccc(C#N)cc3C(=O)N(C)C[C@H](c3ccccc3)CC(=O)N(C)C[C@H]1O2 | 1.07 ± 0.022 |
| COCC(=O)N1[C@H](CO)[C@@H](c2ccccc2)C12CN(C(=O)c1ccccc1)C2 | 1.07 ± 0.09 |
| CO[C@@H]1CN(C)C(=O)c2ccc(NC(=O)Nc3cc(F)ccc3F)cc2OC[C@@H](C)N(C(=O)c2ccccn2)C[C@H]1C | 0.981 ± 0.066 |
| COc1ccc2c3c([C@@H](CO)N(CC4CCOCC4)C[C@]33CN(Cc4nccs4)C3)n(C)c2c1 | 1.1 ± 0.08 |
| O=C(Nc1ccccc1F)N1CCCCN2[C@H](C1)[C@H](c1ccc(/C=C/c3ccccc3)cc1)[C@@H]2CO | 0.987 ± 0.023 |
| CCS(=O)(=O)Nc1ccc2c(c1)C(=O)N(C)[C@@H]1CC[C@@H](CC(=O)NCc3ccc(OC)cc3)O[C@H]1CO2 | 0.945 ± 0.16 |
| C[C@H]1CN([C@@H](C)CO)C(=O)CCCn2nncc2CO[C@H]1CN(C)C(=O)Nc1ccc(-c2cccs2)cc1 | 1.07 ± 0.09 |
| CNC[C@H]1Oc2ccc(NC(=O)CCC(F)(F)F)cc2C(=O)N([C@H](C)CO)C[C@H]1C | 1.036 ± 0.0066 |
| Cc1noc(C)c1NC(=O)N(C)C[C@H]1Oc2cc(C#CCN(C)C)ccc2S(=O)(=O)N([C@@H](C)CO)C[C@H]1C | 1.02 ± 0.0021 |
| C[C@H]1CN([C@@H](C)CO)C(=O)c2cccc(NC(=O)c3ccncc3)c2O[C@@H]1CN(C)Cc1ccc2c(c1)OCO2 | 1 ± 0.025 |
| N#C[C@@H]1[C@@H](c2ccc(-c3cccnc3)cc2)[C@H](CO)N1C(=O)Nc1ccc(F)cc1 | 1.08 ± 0.019 |
| COc1ccc2c3c([nH]c2c1)[C@@H](CO)N(Cc1cc(F)ccc1F)C[C@]31CN(C1)C(=O)C1CCC1 | 0.88 ± 0.032 |
| CN1C(=O)c2cc(NC(=O)c3ccc4c(c3)OCO4)ccc2OC[C@H]2O[C@H](CC(=O)O)CC[C@@H]21 | 1.15 ± 0.058 |

| SMILES | viability index |
| --- | --- |
| CO[C@H]1CC[C@H]2CCOc3ccc(C#N)cc3C(=O)N(C)C[C@@H](c3ccccc3)CC(=O)N(C)C[C@H]1O2 | 1.04 ± 0.024 |
| O=C(C[C@@H]1C[C@H]2c3cc(NS(=O)(=O)c4ccccc4)ccc3O[C@H]2[C@H](CO)O1)N1CCOCC1 | 1.015 ± 0.0092 |
| N#C[C@H]1[C@@H](c2ccccc2C2=CCCCC2)[C@@H](CO)N1S(=O)(=O)c1ccccc1 | 1.09 ± 0.14 |
| Cc1ccccc1-c1ccc([C@H]2[C@H](CO)N3CCCCN(S(=O)(=O)Cc4ccccc4)C[C@@H]23)cc1 | 0.924 ± 0.034 |
| CN1C(=O)c2cc(NC(=O)c3ccc4c(c3)OCO4)ccc2OC[C@@H]2O[C@H](CC(=O)O)CC[C@H]21 | 1.17 ± 0.096 |
| CO[C@H]1CN(C)C(=O)c2ccc(NS(=O)(=O)CC(F)(F)F)cc2OC[C@@H](C)N(C(=O)NC(C)C)C[C@@H]1C | 1.02 ± 0.095 |
| CC(C)CC#Cc1ccc([C@H]2[C@@H](CO)N3CCCCN(C(=O)Nc4ccccc4)C[C@@H]23)cc1 | 1.02 ± 0.057 |
| CO[C@H](CN(C)Cc1nccs1)[C@H](C)CN([C@@H](C)CO)S(=O)(=O)c1ccc(F)cc1 | 0.963 ± 0.087 |
| CO[C@H]1CC[C@H]2CCN(C)C(=O)[C@@H](C)N(C)C(=O)c3cccc(C#N)c3OC[C@H]1O2 | 1.059 ± 0.0019 |
| C/C=C/c1ccc([C@H]2[C@@H](CO)N(CC3CCCC3)C23CN(S(=O)(=O)CC)C3)cc1 | 1.116 ± 0.011 |
| O=C(Cc1ccncc1)NCC[C@H]1CC[C@H](NS(=O)(=O)c2ccccc2Cl)[C@@H](CO)O1 | 1.114 ± 0.011 |
| CO[C@H](CN(C)C(=O)c1ccc2c(c1)OCO2)[C@@H](C)CN([C@H](C)CO)S(=O)(=O)c1ccc(Cl)cc1 | 1.16 ± 0.098 |
| COc1ccc(NC(=O)N2C[C@H](O)COC[C@@H]3O[C@H](CC(=O)NCc4ccncn4)CC[C@H]32)cc1 | 1.07 ± 0.038 |
| CN1c2ccc(Br)cc2[C@@H]2[C@@H](CCN2C(=O)Cc2ccccc2)[C@@H]1CO | 1.03 ± 0.061 |
| C/C=C/c1ccc([C@@H]2[C@H](CO)N(S(=O)(=O)CC)C23CN(C(C)=O)C3)cc1 | 1 ± 0.098 |
| COCCNC(=O)C[C@@H]1C[C@H]2c3cc(NC(=O)CN(C)C)ccc3O[C@H]2[C@H](CO)O1 | 1.11 ± 0.037 |
| Cc1noc(C)c1S(=O)(=O)N(C)C[C@@H]1OCc2cn(nn2)CCCC(=O)N([C@H](C)CO)C[C@H]1C | 1.07 ± 0.039 |
| CCCC#Cc1ccc([C@@H]2[C@H]3CN(CCC)CCCCN3[C@H]2CO)cc1 | 1.01 ± 0.034 |

— the supplement of paper PMC4723716
